Results as given in patent US20250214977A1, “STAT6 INHIBITORS AND USES THEREOF” (Kymera Therapeutics, Inc., priority 2024, published 2025).

Biological target: T1, biotinylated truncated STAT6 (123-632)-avi (Homo sapiens, UniProt P42226)
T1 sequence (P42226 123-632 limits assumed): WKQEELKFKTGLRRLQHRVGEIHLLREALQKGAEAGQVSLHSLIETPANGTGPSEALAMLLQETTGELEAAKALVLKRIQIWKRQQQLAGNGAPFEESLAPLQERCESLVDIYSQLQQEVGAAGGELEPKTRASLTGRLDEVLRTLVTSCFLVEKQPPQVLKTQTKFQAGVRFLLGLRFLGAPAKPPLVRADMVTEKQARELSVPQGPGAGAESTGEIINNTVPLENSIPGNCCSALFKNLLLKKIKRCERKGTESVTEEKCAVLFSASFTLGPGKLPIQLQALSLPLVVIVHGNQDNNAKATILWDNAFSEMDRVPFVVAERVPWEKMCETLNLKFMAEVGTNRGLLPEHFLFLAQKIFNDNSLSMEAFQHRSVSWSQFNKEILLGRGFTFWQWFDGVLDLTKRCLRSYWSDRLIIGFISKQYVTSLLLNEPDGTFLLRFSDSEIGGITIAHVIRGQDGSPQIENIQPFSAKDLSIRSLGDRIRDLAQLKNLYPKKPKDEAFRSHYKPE
Test: Homogenous Time-Resolved Fluorescence (HTRF) binding assay
Conditions: 0.15 nM biotinylated truncated STAT6 (123-632)-avi, 20 nM fluorescein-labeled probe

Structure (SMILES) | IC50 (30 minutes at room temperature) [µM] | IC50 (30 minutes room temperature) [µM]
CN(C)C(=O)c1cc2cc(C3=CCCN(C(=O)CCn4ccnn4)C3)cc(-c3ccc(C(F)(F)F)cc3O)c2o1 [Example I-1073] | < 0.1 | –
C#Cc1cc(C2=CCCN(C(=O)CCn3ccnn3)C2)cc2cc(C(=O)N(C)C)oc12 [Example I-373, 5-(1-(3-(1H-1,2,3-triazol-1-yl)propanoyl)-1,2,5,6-tetrahydropyridin-3-yl)-7-ethynyl-N,N-dimethylbenzofuran-2-carboxamide] | < 0.1 | –
COc1cc(F)cnc1N1CCN(C(=O)c2cc3c(Cl)cc(C4=CCCN(C(=O)CCn5ccnn5)C4)c(F)c3[nH]2)CC1 [Example I-499] | 10 to 100 | –
COc1ccccc1-c1cc(C2=CCCN(C(=O)CCn3ccnn3)C2)c(F)c2[nH]c(C(=O)N3CCN(c4ncccc4F)CC3)cc12 [Example I-361] | < 0.1 | –
Cc1cccc(C)c1-c1cc(C2=CCCN(C(=O)CCn3ccnn3)C2)cc2cc(C(=O)N(C)C)oc12 [Example I-1659] | – | 0.1 to 1
COc1ccccc1-c1cc(C2=CCCN(C(=O)CCn3ccnn3)C2)c(F)c2[nH]c(C(=O)N3CCN(c4cn5ccnc5cc4C)CC3)cc12 [Example I-915] | < 0.1 | –
CCc1ccncc1-c1cc(C2=CCCN(C(=O)C(C)C)C2)c(F)c2[nH]c(C(=O)N3CCN(c4ncc(F)cc4OC)CC3)cc12 [Example I-1044] | 1 to 10 | –
COc1cc(F)cnc1N1CCN(C(=O)c2cc3c(-c4cnn(C)c4-c4ccccc4)cc(C4=CCCN(C(=O)CCn5ccnn5)C4)c(F)c3[nH]2)CC1 [Example I-621] | < 0.1 | –
CCc1cc(C)ncc1-c1cc(C2=CCCN(C(=O)CCn3ccnn3)C2)c(F)c2[nH]c(C(=O)N3CCN(C4CC4)CC3)cc12 [Example I-536] | < 0.1 | –
COc1ccccc1-c1cc(C2=CCCN(C(=O)C(C)C)C2)c(F)c2[nH]c(C(=O)N3CCCCC3)cc12 [Example I-1651] | – | 1 to 10
COc1ccccc1-c1cc(C2=CCCN(C(=O)CCn3ccnn3)C2)c(F)c2[nH]c(C(=O)N3CCOCC3)cc12 [Example I-985] | < 0.1 | –
COc1ccncc1-c1cc(C2=CCCN(C(=O)CCn3ccnn3)C2)c(F)c2[nH]c(C(=O)N3CCN(c4ccc(F)c(OC)c4F)CC3)cc12 [Example I-492] | > 100 | –
C[C@H]1CCCCN1C(=O)c1cc2ccc(C3=CCCN(C(=O)CCn4ccnn4)C3)cc2[nH]1 (single isomer, unassigned) [Example I-129] | 10 to 100 | –
COc1ccccc1-c1cc(C2=CCCN(C(=O)CCn3ccnn3)C2)c(F)c2[nH]c(C(=O)N3CCN(c4ccc5n[nH]cc5c4)CC3)cc12 [Example I-859] | < 0.1 | –
CN(C)C(=O)c1cc2ccc(C3=CCCN(C(=O)CCn4cccn4)C3)cc2[nH]1 [Example I-826] | 0.1 to 1 | –
CCc1ccncc1-c1cc(C2=CCCN(C(=O)C(=O)O)C2)c(F)c2[nH]c(C(=O)N3CCN(c4ncc(F)cc4OC)CC3)cc12 [Example I-790] | < 0.1 | –
CCOC(=O)N1CCN(C(=O)c2cc3c(-c4ccccc4OC)cc(C4=CCCN(C(=O)CCn5ccnn5)C4)c(F)c3[nH]2)CC1 [Example I-1405] | – | < 0.1
COc1ccccc1-c1cc(C2=CCCN(C(=O)CCn3ccnn3)C2)c(F)c2[nH]c(C(=O)N3CCN(c4ncc(F)cc4OC)CC3)cc12 [Example I-370] | < 0.1 | –
COc1ccccc1-c1cc(C2=CCCN(C(=O)CCn3ccnn3)C2)c(F)c2[nH]c(C(=O)N3CCN(c4cc(C#N)ccc4OC)CC3)cc12 [Example I-356, 3-(4-(6-(1-(3-(1H-1,2,3-triazol-1-yl)propanoyl)-1,2,5,6-tetrahydropyridin-3-yl)-7-fluoro-4-(2-methoxyphenyl)-1H-indole-2-carbonyl)piperazin-1-yl)-4-methoxybenzonitrile] | < 0.1 | –
CN(C)C(=O)c1cc2cc([C@@H]3CC[C@H](CO)N(C(=O)CCn4ccnn4)C3)ccc2o1 (single isomer, unassigned) [Example I-156] | 10 to 100 | –
COc1ccncc1-c1cc(C2=CCCN(C(=O)CCn3ccnn3)C2)c(F)c2[nH]c(C(=O)N3CCN(c4ccc(C5CC5)cc4OC)CC3)cc12 [Example I-481] | < 0.1 | –
COc1ccccc1-c1cc(C(=O)N(C)C)cc2sc(C3=CCCN(C(=O)CCn4cccn4)C3)nc12 [Example I-1478] | – | < 0.1
CCCN(C)C(=O)c1cc2cc(C3=CCCN(C(=O)CCn4ccnn4)C3)ccc2o1 [Example I-235] | 0.1 to 1 | –
CC(=O)N1CCC=C(c2cc(-c3cccc4c3OCCO4)c3cc(C(=O)N(C)C)[nH]c3c2F)C1 [Example I-1095] | < 0.1 | –
COc1cc(F)cnc1N1CCN(C(=O)c2cc3c(C4CC4)cc(C4=CCCN(C(=O)CCn5ccnn5)C4)c(F)c3[nH]2)CC1 [Example I-694] | > 100 | –
CN(C(=O)c1cc2cc(C3=CCCN(C(=O)CCn4ccnn4)C3)ccc2o1)c1ccccn1 [Example I-1555] | – | 0.1 to 1
CCN1CCCCC1c1cc(C2=CCCN(C(=O)CCn3ccnn3)C2)c(F)c2[nH]c(C(=O)N3CCN(c4ncc(F)cc4OC)CC3)cc12 (stereo not drawn) [Example I-784] | < 0.1 | –

Structure (SMILES) | IC50 (30 minutes at room temperature) [µM] | IC50 (30 minutes room temperature) [µM]
CN(C)C(=O)c1cc2ccc(C3=CCCN(C(=O)Cc4c[nH]nn4)C3)cc2[nH]1 [Example I-38] | 10 to 100 | –
O=C(CCn1ccnn1)N1CCC=C(c2ccc3oc(C(=O)N4CC(O)C4)cc3c2)C1 [Example I-1554] | – | 1 to 10
CCc1cc(C)ncc1-c1cc(C2=CCCN(C(=O)CCc3nnn[nH]3)C2)c(F)c2[nH]c(C(=O)N3CCN(c4ncc(F)cc4OC)CC3)cc12 [Example I-1238] | – | 1 to 10
CNc1ccc(-c2cc([C@@H]3CCCN(C(C)=O)C3)c(F)c3[nH]c(C(=O)N(C)C)cc23)c(OC)c1 (single isomer, unassigned) [Example I-1650] | – | 1 to 10
CN(C)C(=O)c1cc2cc(C3=CCCN(C(=O)CC4CCOCC4)C3)ccc2o1 [Example I-255] | 10 to 100 | –
CN(C)C(=O)c1cc2cc(C3=CCCN(C(=O)CCc4cccc5ccccc45)C3)ccc2o1 [Example I-291] | 10 to 100 | –
CN(C)C(=O)c1cc2cc(C3=CCCN(C(=O)C(Cn4ccnn4)c4cccc(C#N)c4)C3)ccc2o1 (stereo not drawn) [Example I-835] | 0.1 to 1 | –
COc1ccccc1-c1cc(C2=CCCN(C(=O)CCn3ccnn3)C2)c(F)c2[nH]c(C(=O)N3CCN(c4ccc(C#N)cc4F)CC3)cc12 [Example I-1009] | < 0.1 | –
COc1cc(F)cnc1N1CCN(C(=O)c2cc3c(C4=Cc5ccccc5C4)cc(C4=CCCN(C(=O)CCn5ccnn5)C4)c(F)c3[nH]2)CC1 [Example I-1161] | 0.1 to 1 | –
CCS(=O)(=O)N1CCN(C(=O)c2cc3c(-c4ccccc4OC)cc(C4=CCCN(C(=O)CCn5ccnn5)C4)c(F)c3[nH]2)CC1 [Example I-980] | < 0.1 | –
COc1ccccc1-c1cc(C2=CCCN(C(C)=O)C2)c(F)c2cc(-n3ccccc3=O)oc12 [Example I-1479] | – | 0.1 to 1
CN(C)C(=O)c1cc2ccc(C3=CCCN(C(=O)CCc4nnco4)C3)cc2[nH]1 [Example I-18] | > 100 | –
COc1cc(F)cnc1N1CCN(C(=O)c2cc3c(-c4ccc(C(C)N5CCOCC5)cc4)cc(C4=CCCN(C(=O)CCn5ccnn5)C4)c(F)c3[nH]2)CC1 (stereo not drawn) [Example I-1121] | < 0.1 | –
O=C(CCn1ccnn1)N1CCCC(n2ccc3cc(-n4ccccc4=O)ccc32)C1 (stereo not drawn) [Example I-1303] | – | 10 to 100
COc1cc(F)cnc1N1CCN(C(=O)c2cc3c(-c4ccc(C#N)c(C)c4)cc(C4=CCCN(C(=O)CCn5ccnn5)C4)c(F)c3[nH]2)CC1 [Example I-1139] | < 0.1 | –
COc1ccccc1-c1cc(C2=CCCN(C(=O)CCn3ccnn3)C2)c(F)c2[nH]c(C(=O)N3CCC(n4c(=O)[nH]c5ncccc54)CC3)cc12 [Example I-981] | 0.1 to 1 | –
COc1ccccc1-c1cc(C2=CCCN(C(=O)CCn3ccnn3)C2)c(F)c2[nH]c(C(=O)N3CCN(Cc4nc(C)cs4)CC3)cc12 [Example I-1185] | < 0.1 | –
O=C(NCCCCCCO)c1cc2ccc(C3=CCCN(C(=O)CCn4ccnn4)C3)c(F)c2[nH]1 [Example I-1660] | – | 1 to 10
COc1cnccc1-c1cc(C2=CCCN(C(=O)CCn3ccnn3)C2)c(F)c2[nH]c(C(=O)N3Cc4cnn(C)c4C3)cc12 [Example I-502] | 10 to 100 | –
CN(C)C(=O)c1cc2cc(C3CCC(CO)N(C(=O)CCn4ccnn4)C3)ccc2o1 (stereo not drawn) [Example I-154] | 10 to 100 | –
COc1ccccc1-c1cc(C2=CCCN(C(=O)CCn3ccnn3)C2)c(F)c2[nH]c(C(=O)N3CCc4n[nH]cc4C3)cc12 [Example I-851] | < 0.1 | –
COc1ccccc1-c1cccc2c(F)c(C3=CCCN(C(=O)CCn4ccnn4)C3)[nH]c12 [Example I-1267] | – | 10 to 100
COc1ccccc1-c1cc(C2=CCCN(C(=O)CCn3ccnn3)C2)c(F)c2[nH]c(C(=O)N3CCN(c4ccnc5c4CC(=O)N5)CC3)cc12 [Example I-914] | < 0.1 | –
CC(=O)N1CCC=C(c2cc(-c3ccc4n[nH]c(C)c4c3)c3cc(C(=O)N(C)C)[nH]c3c2F)C1 [Example I-883] | 0.1 to 1 | –
CCc1cnccc1-c1cc(C(=O)N2CCN(c3ncc(F)cc3OC)CC2)cc2cc(C3=CCCN(C(=O)C(=O)O)C3)n(CC3CC3)c12 [Example I-796] | > 100 | –
CCOc1cccnc1N1CCN(C(=O)c2cc3c(-c4ccccc4OC)cc(C4=CCCN(C(=O)CCn5ccnn5)C4)c(F)c3[nH]2)CC1 [Example I-335] | < 0.1 | –
COC(=O)c1ccc(OC)c(N2CCN(C(=O)c3cc4c(-c5ccccc5OC)cc(C5=CCCN(C(=O)CCn6ccnn6)C5)c(F)c4[nH]3)CC2)n1 [Example I-360] | < 0.1 | –
